From PubChem BioAssay AID488969 (Vanderbilt High Throughput Screening Facility, 2010) come the findings set out here.

SMILES strings stand for the structures. Over roughly 110,000 compounds, “z-score” has its median near -0.1; the highest 2% begin near 2. The list shows a part of the results.

This experiment addresses Metabotropic glutamate receptor 8 (Rattus norvegicus) (UniProt P70579). Put plainly: rat mGluR8 modulators via GIRK flux, primary screen, cell-based, thallium flux, HTS (AID 488969). Particulars: HEK293 rat mGluR8, GIRK (G protein-gated inwardly rectifying potassium channel) thallium flux, FluoZin2; at 10 µM; stronger effect = higher value; submaximal glutamate (EC20) added with thallium.
Chain of UniProt P70579 (P70579 whole entry, looked up): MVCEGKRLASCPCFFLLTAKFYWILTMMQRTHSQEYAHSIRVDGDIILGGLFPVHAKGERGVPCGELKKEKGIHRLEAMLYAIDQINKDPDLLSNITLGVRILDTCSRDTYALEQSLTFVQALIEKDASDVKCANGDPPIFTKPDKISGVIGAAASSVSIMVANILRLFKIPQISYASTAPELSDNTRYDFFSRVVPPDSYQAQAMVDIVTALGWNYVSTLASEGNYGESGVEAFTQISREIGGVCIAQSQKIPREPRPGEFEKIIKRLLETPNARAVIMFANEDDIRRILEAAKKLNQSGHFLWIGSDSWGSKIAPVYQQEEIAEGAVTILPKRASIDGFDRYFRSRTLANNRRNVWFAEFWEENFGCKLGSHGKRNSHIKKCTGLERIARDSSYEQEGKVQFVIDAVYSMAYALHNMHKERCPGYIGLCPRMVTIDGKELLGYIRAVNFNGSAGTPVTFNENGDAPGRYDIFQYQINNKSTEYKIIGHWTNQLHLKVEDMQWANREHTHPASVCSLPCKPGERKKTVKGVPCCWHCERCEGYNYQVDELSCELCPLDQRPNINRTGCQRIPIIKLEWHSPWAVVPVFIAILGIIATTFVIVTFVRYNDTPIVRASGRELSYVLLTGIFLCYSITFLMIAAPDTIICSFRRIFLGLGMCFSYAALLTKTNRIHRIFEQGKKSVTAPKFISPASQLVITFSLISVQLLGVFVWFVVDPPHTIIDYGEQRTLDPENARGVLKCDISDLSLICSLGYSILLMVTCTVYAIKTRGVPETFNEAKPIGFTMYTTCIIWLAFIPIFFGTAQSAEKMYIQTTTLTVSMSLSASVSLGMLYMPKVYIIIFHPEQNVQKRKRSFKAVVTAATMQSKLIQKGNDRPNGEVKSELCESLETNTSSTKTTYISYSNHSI
`Fc1ccc2[nH]c3c(N4CCN(Cc5ccc6c(c5)OCO6)CC4)ncnc3c2c1` had a z-score of -0.419.

As for `CCCOP(=O)(OCCC)c1c([N+](=O)[O-])cc(C(F)(F)F)cc1[N+](=O)[O-]`, the z-score was determined as 0.203.

The compound `COc1ccc(-n2c(SCC(=O)N3CCN(c4ccccc4)CC3)nc3c(c2=O)SCC3)cc1` returned a z-score of -1.5.

On to `COc1ccccc1NC(=O)Cn1cc(C#N)c2ccccc21`, for which the z-score is -0.0322.

As to `O=C(Nc1ccc(N2CCCC2)c(S(=O)(=O)Nc2cccc(C(F)(F)F)c2)c1)c1cccs1`, the z-score was -0.233.

`O=C(N/N=C/c1cn(-c2ccccc2)nc1-c1cc2ccccc2o1)c1ccccc1Br` yielded a z-score of 0.0996.

`COc1ccc(-n2c(SCC(=O)Nc3nc(C)cs3)nnc2-c2ccoc2C)cc1` registered a z-score of -2.63.

`COc1ccccc1CN1CC(C(=O)N2CCN(c3ccc(F)cc3)CC2)CC1=O` (configuration not stated) yielded a z-score of -0.0536.

Regarding `C/C(=N/NS(=O)(=O)c1ccc(Cl)cc1)c1cccc(O)c1`, the z-score is -0.136.

The compound `Cc1ccc2nc(-c3ccc(NC(=O)COC(=O)c4ccc([N+](=O)[O-])o4)cc3)sc2c1` displayed a z-score of -0.184.

As to `Cc1ccc(-c2cccc(NC(=O)C3C(C(=O)O)[C@@H]4C=C[C@H]3C4)c2)o1` (some centres not stated), the z-score was -0.227.

In the case of `COC(=O)c1ccccc1NC(=O)c1ccc(-c2ccccc2F)o1`, the z-score stood at 0.12.

Regarding `O=C(c1csc2c1CCCC2)N1CCN(c2ncccn2)CC1`, the z-score is -0.37.

`CCOCCCN(Cc1cc2cc(C)cc(C)c2[nH]c1=O)C(=O)N(CC)CC` showed a z-score of 0.102.

`CS(=O)(=O)c1nc2ccccc2n1Cc1ccccc1` yielded a z-score of -0.0282.

With `COc1cc(OC)c(NC(=O)CCNC(=O)Cn2ccc3ccccc3c2=O)cc1Cl`, the z-score was -0.293.

On to `Cc1ccc(-c2csc(NC(=S)NC(=O)c3cccs3)n2)cc1`, for which the z-score was -0.267.

As for `Cc1ccc(CNC(=O)Cn2cc(C(F)(F)F)ccc2=O)cc1`, the z-score was -0.0483.

The compound `CN(C(=O)Cc1ccccc1)n1cnnc1` had a z-score of 0.161.

`COc1ccc(N2C(=O)CSC2c2cccc(OC)c2OC)cc1` (configuration not stated) displayed a z-score of -0.163.

`COc1cc2c(cc1OC)CN(C(=O)c1cc(=O)c3ccccc3o1)CC2`: the z-score was -0.159.

Regarding `CC(=O)c1cccc(OCCN2C(=O)NC(C)(C)C2=O)c1`, the z-score worked out at 0.0476.

Compound `Cc1ccc2c(c1)c1c(n2C)C(C(N)=O)CCC1` (configuration not stated) showed a z-score of -0.132.

For `CCOC(=O)C1CCN(S(=O)(=O)c2cccc(-c3cn4cccnc4n3)c2)CC1`, the z-score is -0.132.

The compound `CCCOc1ccccc1C1NC(=O)NC(C)=C1C(=O)OCc1ccccc1` (configuration not stated) returned a z-score of 0.0768.

`COc1ccccc1-n1c(-c2ccc(NS(C)(=O)=O)cc2)n[nH]c1=S` registered a z-score of -0.385.

On to `O=C(Nc1ccccc1Sc1ccccc1)c1ccc(F)cc1`, for which the z-score was -0.165.

For `CN1C(=O)CC(Sc2ccccc2C(=O)O)C1=O` (configuration not stated), the z-score is 0.0241.

`Cc1ccc(C)c(S(=O)(=O)NCc2ccc(C(=O)N3CCN(C)CC3)cc2)c1` showed a z-score of -0.152.

The compound `O=C(O)c1cccnc1NC1CCCC1` returned a z-score of 0.516.

Compound `O=C1Nc2ccccc2C12Nc1ccccc1-c1nc3ccccc3n12` (configuration not stated) showed a z-score of -0.273.

In the case of `O=C(NCc1cccs1)Nc1cccc(Cl)c1`, the z-score turned out to be 0.43.

`COc1cc(C)nc(N(C)S(=O)(=O)c2ccccc2Cl)n1` had a z-score of -0.0755.

In turn, `COc1ccc(N=Cc2nc(-c3ccco3)oc2O)cc1` came in with a z-score of -0.138.

Compound `CCOC(=O)C(CCCOc1cccc(CC)c1)C(=O)OCC` returned a z-score of 0.094.

Consider `O=C(c1cc2c(s1)-c1ccccc1OC2)N1CCN(c2ccccn2)CC1`, for which the z-score is -0.421.

Compound `CC1CCCCN1S(=O)(=O)c1ccc(S(=O)(=O)N2CCN(c3ccc(F)cc3)CC2)cc1` (configuration not stated) had a z-score of -0.955.

`C/C(=N\NC(=O)c1cccc(S(=O)(=O)Nc2ccccc2Cl)c1)c1ccco1`: the z-score is -0.146.

For `N#CC1=C(N)OC2=C(C(=O)CCC2)C1Cc1ccccc1` (configuration not stated), the z-score was -0.0816.

Compound `CC1CC(=O)NN=C1c1ccc(N(C)C)c([N+](=O)[O-])c1` (configuration not stated) gave a z-score of -0.192.

Turning to `CC(C)CC(OC(=O)c1cccs1)C(=O)NCC1CCCO1` (configuration not stated), the z-score is -0.0478.

`CCCOc1ccc(OCCCCNC(C)CC)cc1` (configuration not stated): the z-score was 0.85.

In the case of `CCCCCOCC(O)CCC(=O)NN` (configuration not stated), the z-score was -0.00733.

Regarding `O=C(CCS(=O)(=O)Cc1ccccc1F)NCCCN1CCCCC1`, the z-score came out at 0.214.

`Cc1occc1C(=O)Nc1cccc(C(=O)O)c1` gave a z-score of -0.0368.

In turn, `COc1cccc(C(=O)Cn2c(=O)n(CC3CCCO3)c(=O)c3ccccc32)c1` (configuration not stated) returned a z-score of -0.719.

Consider `CCCCNC(=O)c1ccc2c(OCC)n(CCCC)nc2c1`, for which the z-score is -0.483.

The compound `CCc1cc2c(=O)[nH]c(Cc3ccccc3)nc2s1` yielded a z-score of -0.371.

`CCCN(CCC)c1nc(C)cc(C(C#N)c2nc3ccccc3o2)n1` (configuration not stated) had a z-score of 1.32.

Take `CCC(=O)Nc1cccc(-c2nnc(SCC(=O)c3ccccc3)n2C)c1`: the z-score was -0.951.

In turn, `c1csc(CN2CCOCC2)c1` registered a z-score of 0.267.

The compound `CC(C)(Oc1ccc(Cl)cc1)C(=O)NCc1ccncc1` returned a z-score of 0.181.

`COc1ccccc1/C=N/NC(=Nc1ccc(C)cc1)c1nc2ccccc2s1` had a z-score of -0.141.

`Cc1c(C(=O)N(C)Cc2ccccc2)oc2ccc(S(=O)(=O)N3CCCC3)cc12` had a z-score of -2.22.

As to `CCc1ccc(N2C(=O)/C(=C/c3cccs3)N(CC(=O)OC)C2=S)cc1`, the z-score was -0.102.

As for `Cc1nc2nc(COc3ccccc3)[nH]n2c(=O)c1Cc1ccccc1`, the z-score was -1.83.

`Brc1ccc(C2=CC(c3ccco3)n3ncnc3N2)cc1` (configuration not stated) showed a z-score of -2.57.

In the case of `O=C(CSc1nnc(-c2cccnc2)n1C1CCCCC1)NC1CCCC1`, the z-score was -0.0559.

In the case of `O=C(CN1C(=O)CSc2ccccc21)Nc1ccc2c(c1)OCCO2`, the z-score is -0.322.

In turn, `O=C(CCc1ccccc1)NCCCN1CCOCC1` returned a z-score of 0.801.

Take `Cc1ccc(C(=O)NC(=S)Nc2ccc(-c3cc4ccccc4oc3=O)cc2)c(C)c1`: the z-score was -0.115.

In the case of `Cc1ccc(C)c2sc(NC(=O)c3ccc(N4CCCCC4)c([N+](=O)[O-])c3)nc12`, the z-score came out at 0.179.

In the case of `Cc1c(C(=O)NC2CCCCC2)oc2c1C(=O)CC(C)(C)C2`, the z-score turned out to be 1.33.

The compound `CN(C)c1nc2ccc(OCCN3CCCCC3)cc2s1` registered a z-score of 0.169.

With `CC(=O)NS(=O)(=O)c1ccc(NC(=S)NC(=O)COc2ccccc2C)cc1`, the z-score came to 0.496.

Turning to `COc1ccc(CN(Cc2nc3ccccc3c(=O)[nH]2)C(=O)NC2CCCCC2)cc1`, the z-score was -0.301.

Compound `O=S(=O)(Cc1ccc(Cl)cc1)CC(O)COCc1ccccc1` (configuration not stated) returned a z-score of 0.0839.

As for `COc1ccc(S(=O)(=O)N(CC(=O)NCC2CCCO2)c2ccc(F)cc2)cc1OC` (configuration not stated), the z-score is 0.22.

For `CC(NC(=O)c1ccco1)c1ccc2c(c1)OCCO2` (configuration not stated), the z-score was determined as 0.162.

Compound `Cc1cccc(C)c1N1CCN(C(=O)Nc2ccc3c(c2)OCCO3)CC1` displayed a z-score of -0.0911.

For the compound `Cc1nnc(NC(=O)CSc2nnc(Cc3ccccc3)n2Cc2ccccc2)s1`, the z-score is -0.0888.

`O=C(CSc1ccccc1)N1CCc2ccccc21` yielded a z-score of -0.138.

In turn, `Cn1cccc1C(=O)NC(=O)COC(=O)c1ccccc1O` registered a z-score of 0.606.

With `COc1cc(NC(=O)CSc2nccc(C)n2)c(C(=O)O)cc1OC`, the z-score was -0.26.

The compound `CCCOc1ccccc1N/C(=N\S(=O)(=O)c1ccc(C)cc1)Nc1nc(C)cc(C)n1` yielded a z-score of -0.0949.

With `COc1cccc(OC)c1C(=O)Nc1cc(C)on1`, the z-score came to 0.04.

The compound `COc1cc(C(=O)Nc2ccc3c(c2)Cc2cc(NC(=O)c4cc(OC)c(OC)c(OC)c4)ccc2-3)cc(OC)c1OC` returned a z-score of -0.278.

`CCCCCCNCc1cccc(Br)c1` gave a z-score of -0.031.

Compound `COc1ccccc1NC(=O)CCC(=O)Nc1nnc(C(F)(F)F)s1` returned a z-score of -0.293.

Turning to `COc1cccc(/C=N/n2c(-c3ccco3)nc3ccccc3c2=O)c1OC`, the z-score was -0.408.

For `COc1cc(C(=O)NCCOc2cccc(C)c2)c(Br)c(OC)c1OC`, the z-score was -0.0571.

The compound `COc1ccc(CN(C(=O)c2cccs2)c2nccs2)cc1OC` gave a z-score of -0.311.

`CCC(C)NC(=O)CNS(=O)(=O)c1ccc(C)cc1` (configuration not stated) gave a z-score of -0.0996.

Regarding `Cc1cc(C(=O)NN=C2CCCCC2)c2ccccc2n1`, the z-score is 0.0392.

On to `COc1ccc(N(CC(=O)N2CCc3ccccc3C2)S(=O)(=O)c2c(C)nn(C)c2C)cc1`, for which the z-score was -0.173.

In the case of `Cc1cnc(C(=O)OCC(=O)Nc2cccc(S(=O)(=O)N3CCCCC3)c2)cn1`, the z-score is -0.829.

The compound `CCC(=O)Nc1ccc2c(c1)OCCO2` displayed a z-score of -0.164.

With `CC1CCCN(c2ccc(C(=O)NCc3ccco3)cc2[N+](=O)[O-])C1` (configuration not stated), the z-score is -0.478.

The compound `COc1ccc(N/N=C(/C(N)=O)C2=NC(C)(C)Cc3ccccc32)cc1` returned a z-score of -0.381.

`C=CC[n+]1c(-c2ccc(C)cc2)csc1NNC(=O)Nc1ccccc1`: the z-score was -0.479.

The compound `CN1CCN(C2OC(=O)c3ccccc32)CC1` (configuration not stated) showed a z-score of -0.841.

For `CCOC(=O)CSC1=N/C(=C\c2cccnc2)C(=O)N1c1ccc(OC)cc1`, the z-score is -0.218.

The compound `CCOc1ccccc1NC(=O)CN(c1cc(C)cc(C)c1)S(=O)(=O)c1c(C)noc1C` showed a z-score of -0.0813.

Regarding `CCN1CCN(CC(=O)Nc2nc3ccc(OC)cc3s2)CC1`, the z-score was -0.0184.

`Cc1ccc(NC(=O)C(=O)NCc2ccc(/C=N/NC(=O)c3c(C)nc4ccccn34)o2)cc1` yielded a z-score of -1.21.

`COc1cccc(/C=C/C(=O)OCC(=O)NCc2ccco2)c1OC` yielded a z-score of -0.235.

As to `S=C(Nc1ccc(Br)cc1)N1CCCC1`, the z-score was found to be 0.0282.

`Cc1cccc(NC(=S)N(C)Cc2cn(C)c3ccccc23)c1` displayed a z-score of 0.0162.

As for `Brc1cccc(C2CC(c3ccccc3)n3nnnc3N2)c1` (configuration not stated), the z-score stood at 0.673.

As for `O=C(NN=C1CCC(c2ccccc2)CC1)c1cc2c(s1)CCCC2` (configuration not stated), the z-score came out at 1.6.

Compound `Cc1c(C(=O)O)oc2ccc(S(=O)(=O)NCCC3=CCCCC3)cc12` yielded a z-score of -0.196.

Consider `Cc1ccc(CS(=O)(=O)CCC(=O)NC2CC2)cc1`, for which the z-score stood at 0.149.

The compound `O=c1nc(N2CCCCCC2)nc(N2CCCCCC2)[nH]1` came in with a z-score of -0.00468.

`Cn1c(-c2cccc(OCc3ccccc3)c2)nc2c1c(=O)[nH]c(=O)n2Cc1ccccc1` displayed a z-score of -0.175.

As for `CNc1ccccc1-c1nc2ccccc2n(C)c1=O`, the z-score came out at 0.24.

In turn, `O=C(COC(=O)c1cc(Cl)ccc1[N+](=O)[O-])NCc1ccc(Cl)cc1Cl` registered a z-score of -0.154.

`Clc1ccc(Cn2nnc(-c3ccccc3)n2)cc1` yielded a z-score of -0.139.

`O=C(CSc1nnc(Cc2ccccc2)o1)NC1CC2CCC1C2` (configuration not stated) yielded a z-score of 0.2.

As for `CC(C)(C)Cc1nc(-c2ccccn2)no1`, the z-score was -0.365.

Take `Cc1c(C(=O)N2CCCCC2)sc(NC(=O)C23CC4CC(CC(C4)C2)C3)c1C#N`: the z-score worked out at 0.323.

In the case of `COc1ccccc1NC(=O)CCC(=O)Nc1ccccc1OC`, the z-score was -0.281.

The compound `COc1ccccc1OCC(=O)NNC(=O)c1cccs1` displayed a z-score of -0.194.
